One molecule from patent US20220152100A1, “METHODS FOR CONTROLLED ACTIVATION OR ELIMINATION OF THERAPEUTIC CELLS” (Bellicum Pharmaceuticals, Inc., priority 2014, published 2022) can be followed below.

The series deals with HEK293T/16 cells. Put plainly: SEAP-based surrogate killing assay of iCasp9 mutants. Conditions: in words, versus wild type. Format: cell-based, human.

B1: T317S: chimeric modified Caspase-9 polypeptide (protein)
chain: VDGFGDVGALESLRGNADLAYILSMEPCGHCLIINNVNFCRESGLRTRTGSNIDCEKLRRRFSSLHFMVEVKGDLTAKKMVLALLELARQDHGALDCCVVVILSHGCQASHLQFPGAVYGTDGCPVSVEKIVNIFNGTSCPSLGGKPKLFFIQACGGEQKDHGFEVASTSPEDESPGSNPEPDASPFQEGLRTFDQLDAISSLPTPSDIFVSYSTFPGFVSWRDPKSGSWYVETLDDIFEQWAHSEDLQSLLLRVANAVSVKGIYKQMPGCFNFLRKKLFFKTSASRA
For B1, the “effect on basal / catalytic activity” value is given as “can reduce basal activity without a large shift in the IC50”.
